Reference: the supplement of paper PMC10126150
Values marked as one replicate rest on one cluster of the flow cell; about a third of the high ones do not repeat.

Each sequence was assayed on ATP (assay: switch fluorescence ratio, 500 uM ATP over buffer (Cy3 cluster intensity, sum of 5 cycles each) (fold (ratio)); higher = stronger signal-on switching upon ATP binding; sequences stand for … in TCGTCGGCAGCGTCAGATGTGTATAAGAGACAGTTTTTTTTTTTTTTTTTTTTTTTTT…TC). Details: aptamer strand: ATP DNA aptamer (quencher-CACCTGGGGGAGTATTGCGGAGGAAGG + anchor), 100 nM annealed; ATP concentration: 500 uM; one replicate.
Summary of the method: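 Exposure to 500 uM ATP lasted 15 min at 22 °C before imaging, and a selection-buffer image was taken beforehand, for Cy3-labelled switching-strand clusters on a modified Illumina MiSeq flow-cell annealed to 100 nM quencher-labelled ATP aptamer. Five buffer/ATP cycles were run with NaOH stripping and re-annealing between them. The fluorescence ratio per cluster is summed target-cycle over summed buffer-cycle Cy3 intensity, averaged per switch-domain sequence. Clusters outside 100-1000 RFU were excluded.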

| Sequence | switch fluorescence ratio |
| --- | --- |
| CTGGAACCAC | 1.09 |
| CTGGAAGCAG | 1.35 |
| CTGGACACAC | 1.34 |
| CTGGACGTTG | 1.03 |
| CTGGATAGGA | 1 |
| CTGGATAGT | 1 |
| CTGGATATAG | 1.02 |
| CTGGATCGCT | 1.08 |
| CTGGATGTGG | 0.967 |
| CTGGATTATA | 0.979 |
| CTGGATTATG | 0.978 |
| CTGGATTGTA | 1.02 |
| CTGGATTTCG | 0.973 |
| CTGGCAAGTT | 1.02 |
| CTGGCCTTGC | 1.12 |
| CTGGCGGCTG | 0.97 |
| CTGGCGGGTT | 1.04 |
| CTGGCGTAAG | 1.01 |
| CTGGCGTACG | 0.951 |
| CTGGCTGTAT | 0.991 |
| CTGGCTTCGA | 1 |
| CTGGGAAACC | 1.01 |
| CTGGGACGCT | 1.04 |
| CTGGGACTCA | 1.08 |
| CTGGGATCCC | 1.02 |
| CTGGGATG | 1.04 |

| Sequence | switch fluorescence ratio |
| --- | --- |
| CTGGGGCAC | 0.983 |
| CTGGGTGAAG | 1.01 |
| CTGGGTTAAT | 0.997 |
| CTGGGTTGTG | 0.946 |
| CTGGTACCAC | 1.01 |
| CTGGTACTGG | 0.996 |
| CTGGTAGCGG | 1.03 |
| CTGGTATGCC | 1.3 |
| CTGGTCATGG | 1.02 |
| CTGGTCGTTC | 0.988 |
| CTGGTGTCTA | 1.02 |
| CTGGTTGATA | 1.05 |
| CTGGTTGCCC | 0.994 |
| CTGGTTTAGA | 0.99 |
| CTGTAAGCGA | 1.98 |
| CTGTACAATC | 1.75 |
| CTGTAGACCA | 0.994 |
| CTGTCCAGA | 0.962 |
| CTGTCGACCC | 1.03 |
| CTGTGACTCT | 1.03 |
| CTGTGCACGG | 1.05 |
| CTGTGCATGT | 1.1 |
| CTGTGCCGTT | 1.03 |
| CTGTGCGA | 1.08 |
| CTGTGCGACG | 1.05 |
| CTGTGCTGGT | 0.986 |

| Sequence | switch fluorescence ratio |
| --- | --- |
| CTGTGCTGTA | 1.02 |
| CTGTGGTGGA | 1.03 |
| CTGTGTCCAT | 0.975 |
| CTGTTACTTG | 0.983 |
| CTGTTATACA | 0.997 |
| CTGTTATGAT | 1 |
| CTGTTCATGC | 0.993 |
| CTGTTGATAG | 1.03 |
| CTGTTTAAAC | 0.966 |
| CTGTTTGGA | 1.1 |
| CTTAAAGGTT | 1.01 |
| CTTAACCACG | 1.08 |
| CTTAAGCTC | 1 |
| CTTAAGTAGC | 1.07 |
| CTTAATATAT | 0.98 |
| CTTAATGGAT | 0.998 |
| CTTAATGTTA | 1.01 |
| CTTACAATCC | 1.14 |
| CTTACCTTC | 1 |
| CTTACGCCTG | 1 |
| CTTACGTGTC | 1.02 |
| CTTAGAAGGT | 0.97 |
| CTTAGCCTTA | 0.966 |
| CTTAGGGCAG | 0.936 |
| CTTAGTACTG | 1.06 |
| CTTAGTGTCG | 0.986 |

| Sequence | switch fluorescence ratio |
| --- | --- |
| CTTATCCATC | 0.97 |
| CTTATGGTGG | 1.04 |
| CTTATGTAGT | 1.04 |
| CTTATTTGGA | 0.996 |
| CTTCACTCAC | 1.26 |
| CTTCACTCTT | 1.02 |
| CTTCAGGCGA | 1.23 |
| CTTCATGAGT | 1.28 |
| CTTCATGGGA | 1.01 |
| CTTCCCCGTT | 3.14 |
| CTTCGAAGCA | 1.37 |
| CTTCGCCATT | 2.01 |
| CTTCGCGGAA | 1.35 |
| CTTCGCTTGA | 1.07 |
| CTTCGGGAAC | 1.49 |
| CTTCGGTGGG | 0.998 |
| CTTCGTATAA | 1.77 |
| CTTCGTCTCA | 1.04 |
| CTTCGTGATT | 1.22 |
| CTTCTAGTAA | 1.1 |
| CTTCTGACGG | 1.84 |
| CTTCTGTGTT | 1.01 |
| CTTCTGTTAT | 1.01 |
| CTTCTTACTT | 0.99 |
| CTTCTTATCA | 0.962 |
| CTTCTTGCT | 0.994 |

| Sequence | switch fluorescence ratio |
| --- | --- |
| CTTCTTTCCT | 1.04 |
| CTTGAAGTAT | 0.974 |
| CTTGACGCAT | 1.89 |
| CTTGACTTCA | 1.01 |
| CTTGATGGCT | 1.04 |
| CTTGATTTTG | 1.04 |
| CTTGCACTTT | 0.988 |
| CTTGCAGGGT | 0.992 |
| CTTGCATTGG | 1.08 |
| CTTGCCACGC | 1.08 |
| CTTGCCTGCC | 1.35 |
| CTTGCGATGG | 1.34 |
| CTTGCTGTCA | 1.02 |
| CTTGGAAGG | 1.02 |
| CTTGGACGTA | 1.13 |
| CTTGGACTG | 1.1 |
| CTTGGCAGTG | 0.984 |
| CTTGGCCCGC | 1.09 |
| CTTGGCCTCC | 1.14 |
| CTTGGGATAT | 1.03 |
| CTTGGGCGTG | 0.99 |
| CTTGGGGGTT | 1.02 |
| CTTGGGGTCG | 1.01 |
| CTTGGTCTTA | 0.96 |
| CTTGGTGTG | 0.984 |
| CTTGGTTGGA | 0.978 |

| Sequence | switch fluorescence ratio |
| --- | --- |
| CTTGTATAAA | 0.998 |
| CTTGTATGGA | 0.97 |
| CTTGTCTTGA | 0.981 |
| CTTGTGGGCA | 0.996 |
| CTTGTTCAAT | 0.944 |
| CTTGTTGCTG | 1.02 |
| CTTGTTGGAG | 0.965 |
| CTTGTTGGCA | 1.04 |
| CTTTAAAGGG | 0.977 |
| CTTTACAAGG | 0.971 |
| CTTTATGGA | 0.981 |
| CTTTATGGGC | 0.994 |
| CTTTATGGTG | 1.22 |
| CTTTATGTAG | 1.01 |
| CTTTCAGGTG | 4.63 |
| CTTTCCGGCG | 1.32 |
| CTTTCCGTGG | 1.03 |
| CTTTCGCAGA | 1.21 |
| CTTTCTTGAG | 0.99 |
| CTTTGACAGT | 0.979 |
| CTTTGAGGGG | 1.01 |
| CTTTGCCGGG | 1.03 |
| CTTTGCCTCT | 0.954 |
| CTTTGCCTGT | 0.975 |
| CTTTGGCACG | 0.991 |
| CTTTGGCCAT | 1.04 |

| Sequence | switch fluorescence ratio |
| --- | --- |
| CTTTGGGCGG | 1.01 |
| CTTTGGGCTC | 0.974 |
| CTTTGGGTGC | 1.07 |
| CTTTGGTAGC | 1.01 |
| CTTTGTATGA | 0.945 |
| CTTTGTCTGC | 1.03 |
| CTTTGTTCCA | 0.98 |
| CTTTGTTTTG | 0.998 |
| CTTTTAAGGG | 0.979 |
| CTTTTAATTA | 1.04 |
| CTTTTATAAC | 1.01 |
| CTTTTATGGA | 0.946 |
| CTTTTCCGCC | 2.68 |
| CTTTTCCTTA | 1 |
| CTTTTGCAGC | 1.31 |
| CTTTTTATCG | 1.08 |
| CTTTTTCGGC | 1.01 |
| CTTTTTCGTT | 0.998 |
| GAAAAAAGTT | 0.944 |
| GAAAAAGGGT | 1.01 |
| GAAAACTTCA | 1.12 |
| GAAAAGAGCT | 0.982 |
| GAAAAGGCGG | 0.968 |
| GAAAAGGCTA | 1.01 |
| GAAAAGGTAT | 0.964 |
| GAAAATCTTG | 1.1 |

| Sequence | switch fluorescence ratio |
| --- | --- |
| GAAACCCGTT | 1.06 |
| GAAACGAGGG | 1.02 |
| GAAAGAGGG | 0.976 |
| GAAAGAGTAG | 1.05 |
| GAAAGCCCG | 1.02 |
| GAAAGGAAC | 0.998 |
| GAAAGGGAGT | 0.951 |
| GAAAGGTGTA | 1.11 |
| GAAAGTGAC | 0.947 |
| GAAAGTGGTT | 0.97 |
| GAAATCCA | 0.991 |
| GAAATCGAGG | 0.99 |
| GAAATGACAA | 0.979 |
| GAAATTCAGT | 0.974 |
| GAAATTCCTT | 1.05 |
| GAACAACTTT | 1.05 |
| GAACACCCT | 1.14 |
| GAACACTGGG | 1.01 |
| GAACAGAGAG | 1.06 |
